# Measured values published in PubChem BioAssay AID1476 (National Center for Advancing Translational Sciences (NCATS), 2009).
# Hit rate of the full screen: of about 200,000 compounds, about 4,500 (2.2%) were called active. The inconclusive results got no clear call from the source; some entries with a clear call stand among them for comparison. The call rests on the fitted dose curve; in most records, active means well fitted inhibition curve with a large enough effect; inconclusive means small, poorly fitted or top-dose-only effect, or effect the other way; inactive means flat fitted curve, though single readings scatter. A potency beside an inconclusive call is a rough fit, not a confirmed value.
# Molecular target: Cruzipain (Trypanosoma cruzi) (UniProt P25779)
# UniProt P25779, sequence (P25779 whole entry, looked up): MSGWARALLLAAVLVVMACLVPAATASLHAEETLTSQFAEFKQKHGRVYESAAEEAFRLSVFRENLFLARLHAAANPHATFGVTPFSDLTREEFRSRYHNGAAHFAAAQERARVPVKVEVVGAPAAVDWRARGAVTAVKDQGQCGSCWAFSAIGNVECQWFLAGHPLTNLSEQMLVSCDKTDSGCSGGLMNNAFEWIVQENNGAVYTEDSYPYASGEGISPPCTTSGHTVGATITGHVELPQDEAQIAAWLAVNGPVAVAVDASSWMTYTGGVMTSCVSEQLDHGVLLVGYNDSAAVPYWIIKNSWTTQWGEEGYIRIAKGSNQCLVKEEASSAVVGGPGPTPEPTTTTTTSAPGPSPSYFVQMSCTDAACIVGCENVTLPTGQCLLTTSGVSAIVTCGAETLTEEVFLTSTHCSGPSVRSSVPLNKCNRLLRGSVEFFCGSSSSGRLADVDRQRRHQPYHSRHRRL
# Assay: qHTS Assay for Promiscuous and Specific Inhibitors of Cruzain (without detergent); further: nearly all actives have a fitted effect of over 40% in size;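 on max response, negative = inhibition: plate controls were enzyme without inhibitor for no effect and buffer without enzyme for full effect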
# Details: purified cruzain, Z-FR-AMC fluorescence, no detergent
# Method in brief: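 Detergent-free condition (0.00005% Triton X-100) in acetate buffer pH 5.5 with DTT. 1.5 nM enzyme and compound were pre-mixed 15 min, then 2 uM Z-FR-AMC substrate added; reaction progress from fluorescence change between first and third reads (60 s).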
# Potency means the concentration at half of the fitted maximal effect; tags describe the fitted curve by direction and shape.
Structure (SMILES),Potency,"max response, negative = inhibition"
COc1ccc(OC)c(-n2c(=O)[nH]c3cc(C(=O)NCCc4ccc(OC)c(OC)c4)ccc3c2=O)c1,"inconclusive: 39.8 µM [activator, single point]",–
CC(C)(C)c1ccc(OCc2ccc(C(=O)N/N=C3\CC4CC=CC34)cc2)cc1 (stereo not given),–,inactive: -1.49%
N#Cc1c(SCc2ccccc2)nc(N2CCOCC2)c2c1CCCC2,"inconclusive: 31.6 µM [inhibitor, single point]",–
Cc1cc(Nc2ccccc2)n(C(=O)c2ccc(N)cc2)n1,"inconclusive: 25.1 µM [activator, single point]",–
C/C(=C(/CCO)SSC[C@@H]1CCCO1)N(C=O)Cc1cnc(C)nc1N,–,inactive: -2.3%
COc1cccc(N2CCN(C(=O)CCn3nc(C)c(S(=O)(=O)N4CCCC4)c3C)CC2)c1,"inconclusive: 31.6 µM [activator, single point]",–
c1ccc(CNc2nc(-c3ccoc3)nc3ccccc23)cc1,active: 25.1 µM,–
O=[N+]([O-])c1ccccc1N/N=C\c1ccccc1Cl,active: 20 µM,–
C/C=C/c1ccc(OCCOCCOc2cccc3cccnc23)c(OC)c1,"inconclusive: 31.6 µM [activator, single point]",–
O=C(CC1SC(=NCCc2ccccc2)N(/N=C/c2cccs2)C1=O)Nc1ccc(Cl)cc1 (stereo not given),active: 12.6 µM,–
CC(C)C[C@@H](CC(=O)N[C@H](CC(=O)N[C@@H]1CCCC[C@H]1C(=O)N[C@H](CC(=O)N[C@@H](CCC(=O)O)CC(=O)O)Cc1c[nH]c2ccccc12)C(C)C)NC(=O)[C@@H]1CCCC[C@H]1N,"inconclusive: 25.1 µM [activator, single point]",–
Cc1nc2ccccc2c2oc(C(=O)N3CCc4ccccc4C3)cc12,"inconclusive: 39.8 µM [activator, single point]",–
Cc1nn(CC(=O)Nc2ccc(C(C)C)cc2)c(=O)c2c(C)n(-c3ccc(Cl)cc3)nc12,–,inactive: -1.71%
COc1ccc(NC(=O)CSc2nc(-c3ccccc3)cc(-c3cc(OC)c(OC)c(OC)c3)c2C#N)c(OC)c1,–,inactive: -3.37%
COc1ccccc1-c1cc(C(=O)Nc2c(C)nn(Cc3ccc(Cl)cc3)c2C)no1,–,inactive: -21.1%
CC(=O)N1CCc2cc(CNS(=O)(=O)c3cccs3)ccc21,–,inactive: -14.1%
O=C(NCc1ccco1)c1cc2ccc(O)cc2oc1=O,"inconclusive: 39.8 µM [inhibitor, single point]",–
CCCCOC(=O)c1ccc(NC(=O)C2(c3cccs3)CCOCC2)cc1,"inconclusive: 31.6 µM [activator, single point]",–
Cc1cc(C)cc(NC(=O)Cn2c(-c3ccccc3Cl)nc3ccccc32)c1,"inconclusive: 25.1 µM [activator, single point]",–
O=C1CCc2cc(S(=O)(=O)N3CCC(C(=O)NC4CCCc5ccccc54)CC3)ccc2N1 (stereo not given),"inconclusive: 15.8 µM [activator, partial curve]",–

Structure (SMILES),Potency,"max response, negative = inhibition"
CC(=O)Nc1ccc(N2C(C(C)=O)=NN(c3ccccc3)C2c2cccs2)cc1 (stereo not given),"inconclusive: 39.8 µM [activator, single point]",–
COc1cccc(C(=O)CSc2nnc(CNS(C)(=O)=O)n2-c2ccc(C)cc2)c1,"inconclusive: 39.8 µM [activator, single point]",–
COc1ccc(Cl)cc1NC(=O)C1CCCN(S(=O)(=O)c2ccc3c(c2)CCCC(=O)N3)C1 (stereo not given),"inconclusive: 39.8 µM [activator, single point]",–
Cc1[nH]n(-c2cccc(Cl)c2)c(=O)c1/C=N/n1c(C)nc2ccccc2c1=O,"inconclusive: 20 µM [activator, single point]",–
O=[As](O)(O)c1ccc(Cc2ccc([As](=O)(O)O)cc2)cc1,"inconclusive: 6.31 µM [activator, single point]",–
COc1ccc(NC(=O)c2cc(S(=O)(=O)N(C)C)ccc2N2CCCC2)cc1Cl,"inconclusive: 39.8 µM [activator, single point]",–
O=C(NC(C(=O)N/N=C/c1ccccc1)c1n[nH]c(=O)c2ccccc12)c1ccccc1 (stereo not given),–,inactive: -13.4%
Cc1ccc2c(CC(=O)Nc3ccc(S(=O)(=O)N4CCC(C)CC4)cc3)coc2c1,"inconclusive: 31.6 µM [inhibitor, single point]",–
CC1CCc2nc3ccc(S(=O)(=O)N4CCC(C(=O)NCc5ccccc5Cl)CC4)cc3c(C(=O)O)c2C1 (stereo not given),"inconclusive: 31.6 µM [activator, single point]",–
Cc1nn(-c2ccccc2)c2c1N(CCCC(=O)NCc1ccc(OC(C)C)cc1)C(=O)CS2,"inconclusive: 25.1 µM [activator, partial curve]",–
Cc1cccc(NC(c2cccc(Cl)c2)c2ccc3cccnc3c2O)n1 (stereo not given),"inconclusive: 39.8 µM [inhibitor, single point]",–
CCOC(=O)c1sc(NC(=O)Nc2cccc(Cl)c2)cc1C,"inconclusive: 39.8 µM [inhibitor, single point]",–
COC(=O)c1ccccc1NC(=O)Cn1nc(C)c2nn(-c3ccc(Cl)cc3)c(C)c2c1=O,–,inactive: -10.1%
CC(=O)Nc1ccc(OC(=O)c2cc3cc(Br)cc(Br)c3oc2=O)cc1,active: 20 µM,–
COc1ccc(NC(=O)c2ccc(-c3nc(COc4ccccc4)c(C)o3)cc2)cc1,–,inactive: 2.05%
CCOc1ccc(NC(=O)CSc2nnc3c(C)cc4ccccc4n23)cc1,–,inactive: 1.07%
CCCCSCCCNC(=O)c1cn(CC)c2ccc(S(=O)(=O)N3CCOCC3)cc2c1=O,"inconclusive: 39.8 µM [activator, single point]",–
Cc1ccc(S(=O)(=O)N(Cc2ccc(Cl)cc2)c2ccccc2C(=O)NCc2cccnc2)cc1,"inconclusive: 39.8 µM [activator, single point]",–
O=C(c1ccc(-c2ccccc2)cc1)N1CCC(C(=O)N2CCCC2)CC1,"inconclusive: 25.1 µM [activator, single point]",–
Cc1c(C(=O)NCC2COc3ccccc3O2)oc2ccc(S(=O)(=O)N(C)C3CCCCC3)cc12 (stereo not given),"inconclusive: 31.6 µM [inhibitor, single point]",–
